# Laboratory results from the supplement of paper PMC8728848.
# The other results are listed elsewhere or left out.
# B1: Flo5 (Saccharomyces cerevisiae), P38894 (protein)
# chain: MGSSHHHHHHSSGLVPRGSHMSGATEACLPAGQRKSGMNINFYQYSLKDSSTYSNAAYMAYGYASKTKLGSVGGQTDISIDYNIPCVSSSGTFPCPQEDSYGNWGCKGMGACSNSQGIAYWSTDLFGFYTTPTNVTLEMTGYFLPPQTGSYTFSFATVDDSAILSVGGSIAFECCAQEQPPITSTNFTINGIKPWDGSLPDNITGTVYMYAGYYYPLKVVYSNAVSWGTLPISVELPDGTTVSDNFEGYVYSFDDDLSQSNCTIPDPSIH
# Experiments:
# Test in all cases: glycan array binding signal (z-score within array); higher = stronger binding
# Conditions in all cases: glycan notation: IUPAC condensed, linker removed
# Gal(a1-3)GalNAc = biological target: Gal(a1-3)GalNAc
# In short: (§1)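 The binding signal is a Z-score computed within each array. Data were drawn from 3228 arrays in the Consortium for Functional Glycomics database, restricted to those with a known protein sequence. Scores were averaged over arrays of the same protein sequence at different concentrations or buffers, and over linkers, and negative values can be taken as non-binding.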
# [1] = biological target: Gal(a1-3)[Gal(a1-4)]Gal(b1-4)GlcNAc
# In short: as §1
# Gal(a1-4)Gal(b1-4)Glc = biological target: Gal(a1-4)Gal(b1-4)Glc
# In short: as §1
# Gal(a1-4)Gal(b1-4)GlcNAc = biological target: Gal(a1-4)Gal(b1-4)GlcNAc
# In short: as §1
# [2] = biological target: Gal(a1-4)Gal(b1-4)GlcNAc(b1-3)Gal(b1-4)Glc
# In short: as §1
# Gal(a1-4)GlcNAc = biological target: Gal(a1-4)GlcNAc
# In short: as §1
# Gal(a1-6)Glc = biological target: Gal(a1-6)Glc
# In short: as §1
# Gal(b1-2)Gal = biological target: Gal(b1-2)Gal
# In short: as §1
# Gal(b1-3)Gal = biological target: Gal(b1-3)Gal
# In short: as §1
# Gal(b1-3)Gal(b1-4)GlcNAc = biological target: Gal(b1-3)Gal(b1-4)GlcNAc
# In short: as §1
# [3] = biological target: Gal(b1-3)Gal(b1-4)GlcNAc(b1-2)Man(a1-3)[Gal(b1-3)Gal(b1-4)GlcNAc(b1-2)Man(a1-6)]Man(b1-4)GlcNAc(b1-4)GlcNAc
# In short: as §1
# Gal(b1-3)GalNAc = biological target: Gal(b1-3)GalNAc
# In short: as §1
# [4] = biological target: Gal(b1-3)GalNAc(a1-3)[Fuc(a1-2)]Gal(b1-4)Glc
# In short: as §1
# [5] = biological target: Gal(b1-3)GalNAc(a1-3)[Fuc(a1-2)]Gal(b1-4)GlcNAc
# In short: as §1
# [6] = biological target: Gal(b1-3)GalNAc(b1-3)Gal(a1-4)Gal(b1-4)Glc
# In short: as §1
# [7] = biological target: Gal(b1-3)GalNAc(b1-4)Gal(b1-4)Glc
# In short: as §1
# [8] = biological target: Gal(b1-3)GalNAc(b1-4)[Neu5Ac(a2-3)]Gal(b1-4)Glc
# In short: as §1
# Gal(b1-3)GlcNAc = biological target: Gal(b1-3)GlcNAc
# In short: as §1
# [9] = biological target: Gal(b1-3)GlcNAc(b1-2)Man(a1-3)[Gal(b1-3)GlcNAc(b1-2)Man(a1-6)]Man(b1-4)GlcNAc(b1-4)GlcNAc
# In short: as §1
# [10] = biological target: Gal(b1-3)GlcNAc(b1-2)Man(a1-3)[Gal(b1-3)GlcNAc(b1-2)Man(a1-6)]Man(b1-4)GlcNAc(b1-4)[Fuc(a1-6)]GlcNAc
# In short: as §1
# [11] = biological target: Gal(b1-3)GlcNAc(b1-3)Gal(b1-3)GlcNAc
# In short: as §1
# [12] = biological target: Gal(b1-3)GlcNAc(b1-3)Gal(b1-4)Glc
# In short: as §1
# [13] = biological target: Gal(b1-3)GlcNAc(b1-3)Gal(b1-4)GlcNAc
# In short: as §1
# [14] = biological target: Gal(b1-3)[Fuc(a1-4)]GlcNAc
# In short: as §1
# [15] = biological target: Gal(b1-3)[Fuc(a1-4)]GlcNAc(b1-2)Man(a1-3)[Gal(b1-3)[Fuc(a1-4)]GlcNAc(b1-2)Man(a1-6)]Man(b1-4)GlcNAc(b1-4)GlcNAc
# In short: as §1
# [16] = biological target: Gal(b1-3)[Fuc(a1-4)]GlcNAc(b1-2)Man(a1-3)[Gal(b1-3)[Fuc(a1-4)]GlcNAc(b1-2)Man(a1-6)]Man(b1-4)GlcNAc(b1-4)[Fuc(a1-6)]GlcNAc
# In short: as §1
# [17] = biological target: Gal(b1-3)[Fuc(a1-4)]GlcNAc(b1-3)Gal(b1-3)[Fuc(a1-4)]GlcNAc
# In short: as §1
# [18] = biological target: Gal(b1-3)[Fuc(a1-4)]GlcNAc(b1-3)Gal(b1-4)GlcNAc
# In short: as §1
# [19] = biological target: Gal(b1-3)[Fuc(a1-4)]GlcNAc(b1-3)Gal(b1-4)[Fuc(a1-3)]GlcNAc
# In short: as §1
# [20] = biological target: Gal(b1-3)[GlcNAc(b1-6)]GalNAc
# In short: as §1
# [21] = biological target: Gal(b1-3)[Neu5Ac(a2-6)]GalNAc
# In short: as §1
# [22] = biological target: Gal(b1-3)[Neu5Ac(a2-6)]GlcNAc(b1-6)Gal(b1-4)Glc
# In short: as §1
# [23] = biological target: Gal(b1-3)[Neu5Ac(b2-6)]GalNAc
# In short: as §1
# [24] = biological target: Gal(b1-4)GalNAc(a1-3)[Fuc(a1-2)]Gal(b1-4)GlcNAc
# In short: as §1
# [25] = biological target: Gal(b1-4)GalNAc(b1-3)[Fuc(a1-2)]Gal(b1-4)GlcNAc
# In short: as §1
# Gal(b1-4)Glc = biological target: Gal(b1-4)Glc
# In short: as §1
# Gal(b1-4)Glc6S = biological target: Gal(b1-4)Glc6S
# In short: as §1
# Gal(b1-4)GlcNAc = biological target: Gal(b1-4)GlcNAc
# In short: as §1
binder,measurement,setting,value
B1,glycan array binding signal (z-score),Gal(a1-3)GalNAc,-0.184
same,glycan array binding signal (z-score),[1],-0.101
same,glycan array binding signal (z-score),Gal(a1-4)Gal(b1-4)Glc,-0.109
same,glycan array binding signal (z-score),Gal(a1-4)Gal(b1-4)GlcNAc,0.012
same,glycan array binding signal (z-score),[2],-0.228
same,glycan array binding signal (z-score),Gal(a1-4)GlcNAc,-0.066
same,glycan array binding signal (z-score),Gal(a1-6)Glc,-0.092
same,glycan array binding signal (z-score),Gal(b1-2)Gal,-0.205
same,glycan array binding signal (z-score),Gal(b1-3)Gal,-0.147
same,glycan array binding signal (z-score),Gal(b1-3)Gal(b1-4)GlcNAc,-0.163
same,glycan array binding signal (z-score),[3],-0.045
same,glycan array binding signal (z-score),Gal(b1-3)GalNAc,-0.167
same,glycan array binding signal (z-score),[4],-0.155
same,glycan array binding signal (z-score),[5],-0.163
same,glycan array binding signal (z-score),[6],-0.167
same,glycan array binding signal (z-score),[7],-0.152
same,glycan array binding signal (z-score),[8],-0.111
same,glycan array binding signal (z-score),Gal(b1-3)GlcNAc,-0.159
same,glycan array binding signal (z-score),[9],-0.092
same,glycan array binding signal (z-score),[10],-0.085
same,glycan array binding signal (z-score),[11],-0.167
same,glycan array binding signal (z-score),[12],-0.166
same,glycan array binding signal (z-score),[13],-0.186
same,glycan array binding signal (z-score),[14],-0.153
same,glycan array binding signal (z-score),[15],0.267
same,glycan array binding signal (z-score),[16],-0.066
same,glycan array binding signal (z-score),[17],-0.194
same,glycan array binding signal (z-score),[18],-0.203
same,glycan array binding signal (z-score),[19],-0.01
same,glycan array binding signal (z-score),[20],-0.125
same,glycan array binding signal (z-score),[21],-0.092
same,glycan array binding signal (z-score),[22],-0.215
same,glycan array binding signal (z-score),[23],-0.121
same,glycan array binding signal (z-score),[24],-0.189
same,glycan array binding signal (z-score),[25],-0.141
same,glycan array binding signal (z-score),Gal(b1-4)Glc,-0.096
same,glycan array binding signal (z-score),Gal(b1-4)Glc6S,-0.154
same,glycan array binding signal (z-score),Gal(b1-4)GlcNAc,-0.167
